# Test results from the supplement of paper PMC4894684.
# Counter-ions that a name gives are not always drawn. ± gives the standard deviation of the averaged measurements. About 15 (2%) of roughly 1,000 compounds showed an effect of 50% or more. The list shows a part of the results.
# System: HFF
# Experiment: uninfected host cell viability relative to vehicle control; higher = less host cell toxicity
# Conditions: 5 µM; 72 h; oxygen 21 %
# 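Note: confluent HFF monolayers, run in parallel with the Toxoplasma growth screen as a host toxicity counterscreen.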
row,SMILES,uninfected host cell viability [%]
1,CS(=O)(=O)Nc1ccc(Cc2noc(-c3ccc4[nH]cc(CCN)c4c3)n2)cc1,90.2 ± 4.8
2,OC(Cc1ccncc1)C(Cl)(Cl)Cl (stereo not given),86 ± 7.1
3,C=CCN1CC[C@]23c4c5ccc(O)c4O[C@H]2C(=O)CC[C@@]3(O)[C@H]1C5 [Naloxone hydrochloride],88.71 ± 0.45
4,COc1ccc2[nH]cc(C3=CCNCC3)c2c1,80.7 ± 3.2
5,NP(N)(=O)NC(=O)c1ccc(F)cc1 [Flurofamide],100 ± 3.2
6,CCOC(=O)c1ncc2[nH]c3ccc(OCc4ccccc4)cc3c2c1COC,103 ± 4.4
7,Clc1cccc(SC2CCNCC2)n1 [Anpirtoline hydrochloride],96.4 ± 2.5
8,"c1ccc(CC(c2ccccc2)N2CCCCC2)cc1 (racemic) [(±)-1-(1,2-Diphenylethyl)piperidine maleate]",89.8 ± 6.6
9,CN1[C@@H]2CC[C@H]1CC(OC(=O)N1Cc3ccccc3NC1=O)C2 (stereo not given in full) [DAU 5884 hydrochloride],89.6 ± 2.4
10,Cc1onc(O)c1C[C@H](N)C(=O)O,87.8 ± 1.2
11,CC(C)(C)OC(=O)c1ncn2c1[C@@H]1CCCN1C(=O)c1c(Br)cccc1-2 [Bretazenil],99.07 ± 0.6
12,O=C(O)CCC(CP(=O)(O)O)C(=O)O (stereo not given) [PMPA (NAALADase inhibitor)],86.7 ± 2.1
13,c1ccc(C2CC2)c(OCC2=NCCN2)c1 [Cirazoline hydrochloride],87 ± 1.4
14,C=C(C)CN1CC[C@@]23c4c5ccc(O)c4O[C@H]2c2[nH]c4ccccc4c2C[C@]3(O)C1C5 [SDM25N hydrochloride],90.3 ± 3.4
15,CC(C)NCC(O)c1ccc(N)c(C#N)c1 (stereo not given) [Cimaterol],84.5 ± 2.1
16,O=C(Cc1ccc(Cl)c(Cl)c1)N1CCCCC1CN1CCCC1 (stereo not given),98.36 ± 0.96
17,C#CCOC(=O)C1=CCCN(C)C1 [Arecaidine propargyl ester tosylate],87.1 ± 2.3
18,c1ccc(CCCN2CCN(CCOC(c3ccccc3)c3ccccc3)CC2)cc1,104 ± 4.1
19,CC(C)C[C@H]1C(=O)N2CCC[C@H]2[C@]2(O)O[C@](NC(=O)[C@@H]3C=C4c5cccc6[nH]c(Br)c(c56)C[C@H]4N(C)C3)(C(C)C)C(=O)N12 [Bromocriptine mesylate],83.8 ± 2.6
20,NCCc1c[nH]c2ccc(C(N)=O)cc12 [5-Carboxamidotryptamine maleate],91.33 ± 0.078
21,O=C(CCCN1CCC2(CC1)C(=O)N(Cc1cccc(F)c1)CN2c1ccccc1)c1ccc(F)cc1 [3'-Fluorobenzylspiperone maleate],78.9 ± 3.1
22,CN1CCN(c2ccc3ccccc3n2)CC1 [N-Methylquipazine dimaleate],84 ± 0.99

row,SMILES,uninfected host cell viability [%]
1,"Clc1ccc(N2CCN(Cc3c[nH]c4ncccc34)CC2)cc1 [L-745,870 trihydrochloride]",102 ± 3.9
2,N[C@H](C(=O)O)c1cc(O)no1 [Ibotenic acid],85 ± 3.7
3,CC(=O)NCCc1c[nH]c2ccccc12 [N-Acetyltryptamine],87.1 ± 1.6
4,FC(F)(F)c1cccc(C2=CCN(CCc3ccc4ccccc4c3)CC2)c1 [Xaliproden hydrochloride],91.89 ± 0.52
5,O=c1ccc2[nH]cc(C3=CCNCC3)c2[nH]1,93.5 ± 2.5
6,O=C(O)/C=C/CO [trans-4-Hydroxycrotonic acid],89.48 ± 0.44
7,O=c1[nH]c2ccccc2n1C1CCN(CCCC(c2ccc(F)cc2)c2ccc(F)cc2)CC1 [Pimozide],84.4 ± 5.2
8,N=C(NCc1ccc(Cl)cc1)SCCCc1c[nH]cn1 [Clobenpropit dihydrobromide],86.2 ± 1.5
9,COc1cc(N)c(Cl)cc1C(=O)NC1CN2CCC1CC2 (stereo not given) [Zacopride hydrochloride],87.6 ± 1.2
10,Cc1ccc2c(c1)C1(CCN(CCc3nc(-c4ccccc4)oc3C)CC1)OC(=O)N2,77 ± 2.1
11,C/C(O)=C(\C#N)C(=O)Nc1cc(Br)ccc1Br,85 ± 3.8
12,C[C@@]12C(=O)OC(=O)[C@]1(C)[C@H]1CC[C@@H]2O1 [Cantharidin],19.7 ± 1.6
13,Ic1cncc(OC[C@@H]2CCN2)c1,85.8 ± 0.95
14,CCOc1cncc(/C=C/CCNC)c1 [TC 2559 difumarate],90.1 ± 2.3
15,"C=CCN1CC[C@]2(C)c3cc(O)ccc3C[C@H]1C2C (single isomer, unassigned; (+))",89 ± 6.4
16,O=C1C2CCN(CC2)C1(CO)CO,91.4 ± 6.9
17,c1ccc2sc(C3(N4CCCCC4)CCCCC3)cc2c1 [BTCP maleate],99.958 ± 0.065
18,C(=C\c1ccccc1)/CN1CCN(CCOC(c2ccccc2)c2ccccc2)CC1,98.9 ± 1.6
19,CCCN[C@@H]1CCc2c(OC)cccc2[C@@H]1C [(+)-AJ 76 hydrochloride],95.4 ± 1.7
20,CN1C(=O)CCS(=O)(=O)C1c1ccc(Cl)cc1 (stereo not given) [Chlormezanone],88.5 ± 4.5
21,CCCN1CCO[C@@H]2c3cc(O)ccc3OC[C@H]21,94.37 ± 0.47
22,CCOC(=O)c1ncn2c1CN(C)C(=O)c1cc(N=[N+]=[N-])ccc1-2,94.38 ± 0.56

row,SMILES,uninfected host cell viability [%]
1,CC1=NN=C(c2ccc(N)cc2)c2cc3c(cc2C1)OCO3,97.82 ± 0.92
2,Cn1c2c(c3ccccc31)CCNCC2,84.3 ± 4.7
3,CC(C)(c1ccc(OCC2CO2)cc1)c1ccc(OCC2CO2)cc1 (stereo not given),88.42 ± 0.58
4,CC(CN)CC(=O)O (stereo not given) [3-Methyl-GABA],84.48 ± 0.2
5,Fc1ccc(C(OCCN2CCN(CCCc3ccccc3)CC2)c2ccc(F)cc2)cc1,86.9 ± 1.9
6,O=C1CSC(c2ccccc2Cl)c2cc(Cl)ccc2N1 (stereo not given),81.9 ± 2.8
7,CCCOc1ccc2[nH]cc(C3=CCNCC3)c2n1,81.5 ± 3.4
8,CC(C)n1cnc2c(C(=O)N[C@H]3CN4CCC3CC4)cc(Cl)cc21,94.48 ± 0.3
9,O=C1CCCN1CC#CCN1CCCC1 [Oxotremorine sesquifumarate],118 ± 29
10,COC(=O)/C=C/C(=O)N[C@@H]1CC[C@@]2(O)[C@H]3Cc4ccc(O)c5c4[C@@]2(CCN3CC2CC2)[C@H]1O5 [β-Funaltrexamine hydrochloride],89.2 ± 6.3
11,"BrC1C(Br)C(Br)C(Br)C(Br)C1Br (stereo not given) [1,2,3,4,5,6-Hexabromocyclohexane]",97.3 ± 1.8
12,Oc1ccc2c3c1O[C@H]1c4c(c5ccccc5n4Cc4ccccc4)C[C@@]4(O)C(C2)N(CC2CC2)CC[C@]314 [N-Benzylnaltrindole hydrochloride],79 ± 2
13,CC(N)Cc1c[nH]c2ccc(O)cc12 (stereo not drawn) [α-Methyl-5-hydroxytryptamine maleate],82.68 ± 0.23
14,COc1ccc(CCN2CCC(Nc3nc4ccccc4n3Cc3ccc(F)cc3)CC2)cc1 [Astemizole],80.6 ± 2.3
15,Oc1cc2c(cc1O)[C@H]1c3ccccc3CN[C@@H]1CC2 (racemic) [Dihydrexidine hydrochloride],87 ± 4.8
16,CCCN(CCC)C1CCc2ccc(O)cc2C1 (stereo not given) [7-Hydroxy-DPAT hydrobromide],101 ± 3
17,c1ccc2c(c1)[I+]c1ccccc1-2 [Diphenyleneiodonium chloride],30.8 ± 3.4
18,O=C(O)c1ccc2[nH]cc(CCCCN3CC=C(c4ccccc4)CC3)c2c1 [Carmoxirole hydrochloride],87.2 ± 3.2
19,CCN1C[C@]2(COC(=O)c3ccccc3N3C(=O)C[C@H](C)C3=O)CC[C@H](OC)[C@@]34[C@@H]5C[C@H]6[C@H](OC)[C@@H]5[C@](O)(C[C@@H]6OC)[C@](O)([C@@H](OC)[C@H]23)[C@@H]14 [Methyllycaconitine citrate],99.5 ± 1.8
20,CCCN(CCC)C1CCc2cccc(O)c2C1 (stereo not given) [8-Hydroxy-DPAT hydrobromide],88 ± 9
21,CC(C)(Cc1c[nH]c2ccc(Cl)cc12)NCCOc1ccccc1OCC1CC1,66.8 ± 6.3
22,Cc1ccc(C[N+](C)(C)C)o1 [5-Methylfurmethiodide],87.1 ± 4.2

row,SMILES,uninfected host cell viability [%]
1,Cc1nc(N)sc1CCN [Amthamine dihydrobromide],98.27 ± 0.58
2,C[C@@H]1O[C@@H](O[C@H]2C[C@@H](O)[C@]3(CO)[C@H]4[C@H](O)C[C@]5(C)[C@@H](C6=CC(=O)OC6)CC[C@]5(O)[C@@H]4CC[C@]3(O)C2)[C@H](O)[C@H](O)[C@H]1O [Ouabain],62.2 ± 5
3,C[C@@H](N)Cc1cnc[nH]1 [(R)-(-)- α-Methylhistamine dihydrobromide],89.841 ± 0.031
4,N[C@@]1(C(=O)O)CC[C@@H](C(=O)O)C1,96.2 ± 4.8
5,Cn1cc(C(=O)C(=O)N[C@H]2CN3CCC2CC3)c2ccccc21,83 ± 3.1
6,C[C@H](N)Cn1ccc2cc(F)c(Cl)cc21 [Ro 60-0175 fumarate],87.5 ± 1.7
7,CCN(CC)CCO[C@H]1CC[C@@]2(C)C(=CC[C@@H]3[C@@H]2CC[C@]2(C)C(=O)CC[C@@H]32)C1,104 ± 3.5
8,CCCCC/C=C\C/C=C\C/C=C\C/C=C\CCCC(=O)Nc1ccc(O)cc1,81.6 ± 2
9,CCNC(=O)[C@H]1O[C@@H](n2cnc3c(N)ncnc32)[C@H](O)[C@@H]1O,100 ± 4.7
10,COc1cc2c(cc1OC)C1CC(=O)C(CC(C)C)CN1CC2 (stereo not given) [Tetrabenazine],88.8 ± 4
11,CN(C(=O)Cc1ccccc1)C(CN1CCCC1)c1ccccc1 (stereo not given) [N-MPPP Hydrochloride],88.26 ± 0.26
12,Cc1cc(SCc2sc(-c3ccc(C(F)(F)F)c(F)c3)nc2C)ccc1OCC(=O)O,101 ± 8.5
13,Cc1[nH]c2ccc(Cl)cc2c1C1=CCNCC1,75.1 ± 2
14,Oc1ccc2c3c1O[C@H]1c4oc5ccccc5c4C[C@@]4(O)[C@@H](C2)N(CC2CC2)CC[C@]314 [Naltriben mesylate],90.1 ± 4.9
15,COc1ccc(C(=O)c2c(C)n(CCN3CCOCC3)c3cc(I)ccc23)cc1,93.8 ± 0.31
16,NCc1cc(O)no1 [Muscimol],83 ± 4.4
17,Cc1nnc2ccc(-c3cccc(C(F)(F)F)c3)nn12,88.4 ± 4.6
18,CCCN(CCC)[C@@H]1CCc2c(OC)cccc2[C@@H]1C [(+)-UH 232 maleate],85.8 ± 2.9
19,CO[C@]12C[C@@H](COC(=O)c3cncc(Br)c3)CN(C)[C@@H]1Cc1cn(C)c3cccc2c13 [Nicergoline],84.2 ± 4.1
